The results in this text go back to ChEMBL document CHEMBL1201862, “PubChem BioAssay data set” (2004).

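A five-concentration, 48-hour dose response in 96-well plates underlies each endpoint, interpolated linearly between surrounding concentrations. GI50 is the concentration that inhibits growth by half.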 Active and inactive are the calls of the source. Cut-off read from the data, not from the text of the source: active = GI50 up to about 1.1 µM and inactive = higher.

This test concerns NCI-H322M. In words: NCI tumour cell line growth inhibition, 48 h.
Regarding `Clc1ccc(OCc2nnc3n2N=C(c2ccccc2)CS3)c(Cl)c1`, the GI50 was inactive: > 10 µM.
Next, `Cc1ccc(-c2nnc(-c3ccc4ccccc4c3)o2)cc1`: inactive: > 100 µM.
The value for `COc1ccc(-c2nc(O)c3ccccc3n2)c(OC)c1` was inactive: > 100 µM.
Next, `C[C@]12CC[C@@H]3c4ccc(O)cc4CC[C@H]3[C@@H]1C/C(=C\c1ccc([N+](=O)[O-])cc1)C2=O`: inactive: > 100 µM; `O=[N+]([O-])c1cc2no[n+]([O-])c2cc1N1CCCCC1`: inactive: 14.9 µM.
Regarding `CCC(=O)Nc1ncnc2ncn(C(=O)CC)c12`, the GI50 is inactive: > 100 µM.
The value for `O=[N+]([O-])c1ccc(/C=C(/c2ccc([N+](=O)[O-])o2)S(=O)(=O)c2ccccc2)o1` was inactive: 23.4 µM.
In the case of `C/C(=N\NC(=S)N1CC2CCC(CC2)C1)c1nccs1`, the GI50 is active: 0.259 µM.
Next, `S=C1CC(c2ccccc2)Sc2ccc(Cl)cc2N1` (stereo not given): inactive: 47.3 µM.
The value for `COc1cc2ccnc3c2c(c1OC)CC1CC(O)C(OC)CC31` (stereo not given) was inactive: 84.7 µM; that for `O=C(/C=C1/Nc2ccc([N+](=O)[O-])cc2N/C1=C/C(=O)c1ccc(Cl)cc1)c1ccc(Cl)cc1` was inactive: > 100 µM.
Next, `CCn1c(SCC(=O)NNC(=S)Nc2ccc(F)cc2)nc2ccccc2c1=O`: inactive: > 100 µM; `O=C(O)/C=C\C(=O)Nn1c(Cc2ccc(Cl)cc2)n[nH]c1=O`: inactive: > 100 µM.
Consider `CC(Cn1c2c(c3cc(O)ccc31)CCc1ccc(O)cc1-2)N(C)C` (stereo not given), for which the GI50 was inactive: 16.6 µM.
The value for `COP(=O)(OC)/C(=C/c1cn(C(c2ccccc2)(c2ccccc2)c2ccccc2)cn1)NC=O` was inactive: 26.1 µM.
Next, `O=C1c2cc(Cl)ccc2N=C(NCCCl)C2CSCN12` (stereo not given): inactive: > 100 µM; `O=C1CSC(c2ccc([N+](=O)[O-])cc2)N1c1ccc(-c2ccc(-n3c(-c4ccccc4)nc4ccccc4c3=O)cc2)cc1` (stereo not given): inactive: > 100 µM.
Next, `COc1cc2c(cc1OCCCC(=O)Nc1cc(C(=O)NCCCN(C)C)n(C)n1)N=CC1CCCN1C2=O` (stereo not given): inactive: > 40.4 µM.
Regarding `Cc1ccc(Nc2n[nH]c(=S)s2)cc1`, the GI50 was inactive: > 100 µM.
The value for `CC(=O)O[C@H]1CC[C@@]2(C)C(=C/C(=N\[N+](=O)[O-])[C@H]3C4CCC([C@H](C)CCCC(C)C)[C@@]4(C)CCC32)C1` (stereo not given in full) was inactive: > 100 µM.
Next, `Cc1cc2c(cc1Cl)S(=O)(=O)OC(c1ccc([N+](=O)[O-])cc1)=N2`: inactive: > 100 µM; `CC(=O)OC1O[C@@H](C(C)(C)O)CC[C@@H]1[C@H]1CC[C@@]2(C)C3=C(CC[C@]12C)[C@@]1(C)C[C@@H](OC(=O)CC(C)(O)CC(=O)O)[C@H](OC(C)=O)C(C)(C)C1CC3` (stereo not given in full): inactive: 17.5 µM.
The value for `CN(C)CCCN1c2ccc([N+](=O)[O-])cc2CCc2cc([N+](=O)[O-])ccc21` was inactive: 13.9 µM.
In the case of `c1ccc(-c2c(-c3[nH]c4ccccc4c3-c3ccccc3)[nH]c3ccccc23)cc1`, the GI50 was inactive: 4.58 µM.
The value for `OC1C2C=CCC1CCC2` (stereo not given) was inactive: > 100 µM; that for `O=C(Nc1ccccc1)N(C1=NCC(CI)S1)c1ccc(F)cc1F` (stereo not given) was inactive: 54.2 µM.
Next, `O=C1CS(=O)(=O)C(c2cccc(Oc3ccccc3)c2)N1c1cccc(Cl)c1Cl` (stereo not given): inactive: 75.2 µM.
The value for `Nc1nc(Cl)c(N)c(NCC2(CO)CCC(OCc3ccccc3)C2)n1` (stereo not given) was inactive: > 100 µM.
Regarding `CCc1cccc(C)c1NC(=O)CCc1n[nH]c(=S)o1`, the GI50 was inactive: > 100 µM.
Regarding `CN(C)CCNC(=O)c1cccc2ccc(-c3ccc(O)cc3)nc12`, the GI50 was inactive: 2.37 µM.
Next, `C[S+]([O-])c1ccc(COP(N)(=O)N(CCCl)CCCl)cc1` (stereo not given): inactive: > 100 µM; `CCOc1nc2c(N3CCCC3)nc(N3CCNCC3)nc2nc1NCc1ccccc1`: inactive: 1.56 µM.
On to `CCNC(=O)N(CC)CN(CC)C(=O)NCC`, for which the GI50 is inactive: > 100 µM.
Turning to `CC(C)CCNC(=O)C(CC(C)C)NC(=O)[C@H]1O[C@@H]1C(=O)O` (stereo not given in full), the GI50 was inactive: > 100 µM.
Next, `O=C1Nc2ccc(Br)cc2/C1=N/c1ccc2c(c1)OCO2`: inactive: 34.4 µM; `CN1C(=O)CC2(C)c3cc(O)ccc3N(C)C12` (stereo not given): inactive: 38.1 µM; `C#CC(=O)OCC#CCOC(=O)C#C`: inactive: > 100 µM.
In the case of `O=C1CCC2(CC1CC(Sc1ccccc1)Sc1ccccc1)OCCO2` (stereo not given), the GI50 is inactive: 92.7 µM.
The value for `COC1(CC[C@@H](C)COC2OC(CO)C(O)C(O)C2O)O[C@H]2C[C@H]3[C@@H]4CC=C5C[C@@H](OC6OC(CO)C(OC7OC(C)C(O)C(O)C7O)C(O)C6OC6OC(C)C(O)C(O)C6O)CC[C@]5(C)[C@H]4CC[C@]3(C)[C@H]2[C@@H]1C` (stereo not given in full) was inactive: 3.03 µM; that for `CCN(CC)c1c(N(CC)CC)c(=O)c1=O` was inactive: 24.7 µM.
Next, `CC(=O)O[C@H]1[C@@H](N2CCCCC2)C[C@H]2[C@@H]3CC=C4C[C@@H](N5CCCC5)CC[C@]4(C)[C@H]3CC[C@@]21C`: inactive: > 100 µM; `COc1cc2cnc3c4cc(OCc5ccccc5)ccc4ccc3c2cc1OC`: inactive: 40.4 µM.
Next, `Cc1cccc(C(C)C)c1NC(=O)CC1C(=O)Nc2ccccc2S1(=O)=O` (stereo not given): inactive: 22.7 µM.
For `O=P(Oc1ccccc1)(Oc1ccccc1)Oc1c[nH]c2ccccc12`, the GI50 is inactive: 16.1 µM.
Next, `COc1ccc(Oc2ccc3cc4c(cc3c2O)OCO4)c2cc(C)oc12`: inactive: 61.4 µM; `C=CCN1COc2c(cc3c4c(cccc24)C(=O)O3)C1`: inactive: 19 µM.
Regarding `CCCCNC(=S)N/C=C1\C(=O)Oc2ccccc2C1=O`, the GI50 is inactive: 94 µM.
Next, `CC(=O)N1c2ccccc2N(C(C)=O)C1c1ccc(C2N(C(C)=O)c3ccccc3N2C(C)=O)[nH]1`: inactive: > 100 µM; `CN(C(=O)c1ccc(Cl)cc1)C(=S)N1CCN(c2ccccc2)CC1`: inactive: > 100 µM; `COC(=O)C1=Cc2cc(OC)c(O)cc2[C@@H](c2ccc(O)c(OC)c2)[C@@H]1C(=O)OC`: inactive: > 100 µM.
Next, `CCOC(=O)C12CCCC1(O)N(NC(=O)OC(C)(C)C)C(C)=C2C(=O)OC` (stereo not given): inactive: > 100 µM; `COC(=O)c1cc(C#N)[nH]c1-c1ccc(Br)s1`: inactive: 15.6 µM; `CC(C)(C)C1CC[C@H](O)[C@H]([C@@H](O)CC2CC(=O)N(c3ccccc3)C(=O)C2)C1` (stereo not given in full): inactive: > 100 µM.
Next, `COc1ccc(/C(C)=N/NC(=S)N(C)C)c(O)c1`: inactive: 3.19 µM.
For `COc1ccc([C@H]2CC(=O)C[C@H](c3ccc(OC)cc3)C23C(=O)c2ccccc2C3=O)cc1`, the GI50 was inactive: 6.93 µM.
Next, `O=C(O)C/N=C(\C(=N\CC(=O)O)c1ccccc1)c1ccccc1`: inactive: > 100 µM; `NC(=S)N1N=C(c2ccc3c(c2)CCC3)CC1c1ccccc1` (stereo not given): inactive: 46.3 µM.
Next, `CC(=O)Oc1ccc2ccc(=O)oc2c1OC(C)=O`: inactive: 54.1 µM; `O=c1cc(-c2nc3ccccc3[nH]2)[nH]c2nc(-c3nc4ccccc4[nH]3)cc(-c3ccc(Cl)cc3)c12`: inactive: 28.2 µM.
The value for `C=CCNC(=O)/C(Cc1cc(Br)c(OC)c(Br)c1O)=N\O` was inactive: 4.25 µM; that for `C/C(=N/NC(=S)Nc1cccc(Cl)c1)c1cccc(/C(C)=N\NC(=S)Nc2cccc(Cl)c2)n1` was inactive: 2.13 µM; that for `COc1ccc(-c2c(C#N)c(NC(=S)NC(=O)c3ccccc3)nc3c2CCCC3)cc1OC` was inactive: > 100 µM.
`O=C1C2=C(CC3=C(C2)CS(=O)(=O)C3)C(=O)C2=C1CC1=C(C2)CS(=O)(=O)C1`: the GI50 is inactive: 33.6 µM.
The value for `C=C1c2[nH]c3c([N+](=O)[O-])c(OC)ccc3c2CCN1C(C)=O` was inactive: 78.3 µM.
`C=C1C(=O)C23[C@H](O)C1CC[C@H]2[C@]12COC3(O)[C@@H](O)[C@@H]1C(C)(C)CC[C@@H]2O`: the GI50 is inactive: 15.8 µM.
Next, `CC(C)(C)c1cc(C(C)(C)C)c(SC2OC(CO)C(O)C(O)C2O)c(O)c1O` (stereo not given): inactive: 11.6 µM.
The value for `O=C1C=C(c2ccccc2)O/C1=C/C(=O)c1ccc(Cl)cc1` was inactive: 46 µM.
Next, `O=C(O)c1ccc2c(c1)CC1(C2)Cc2cc3c(cc2C1=O)CCC3` (stereo not given): inactive: > 100 µM; `O=C(O)C#CCO`: inactive: > 100 µM; `CC(=O)NCCC1CN(C(=O)/C=C/I)c2ccccc21` (stereo not given): inactive: 14.3 µM.
Consider `O=[N+]([O-])c1cnccc1-n1nnc2ccccc21`, for which the GI50 was inactive: 19.4 µM.
Next, `NC(CCCCNCc1ccccc1O)C(=O)O` (stereo not given): inactive: > 100 µM.
The value for `CC(C)[C@@H]1NC(=O)[C@@H]2N=C(O[C@H]2C)[C@H](C(C)C)NC(=O)C2N=C1O[C@H]2C` was inactive: > 100 µM; that for `CC(=O)OC[C@]1(C)CCCC2(C)C1CCC1C=C(C)[C@H]3CCC12C3` (stereo not given in full) was inactive: 47.8 µM; that for `O=C(O)[C@@H]1CSCN1C(=O)[C@@H]1CCC(=S)N1` was inactive: > 100 µM.
The value for `COc1ccc(C2Oc3cc(OC)c(O)c(C)c3[C@H]2C)cc1` (stereo not given in full) was inactive: > 100 µM; that for `COC(=O)CC[C@@H](C)[C@H]1CC[C@H]2[C@@H]3CC[C@@H]4C[C@H](O)CC[C@]4(C)[C@H]3CC[C@]12C` was inactive: 19.2 µM.
As for `Nc1ccc(Nc2cc(O)nc(O)n2)cc1`, the GI50 is inactive: 76.2 µM.
Next, `COc1ccc(/C=C2\CCC(CCN(C)C)(C3=CCCC3)C2=O)cc1Br` (stereo not given): inactive: 9.89 µM; `Cc1c2ccncc2c(C)c2c1[nH]c1ccc(OCC(F)(F)F)cc12`: inactive: 1.73 µM.
